# The list shows a part of the results.
# B1: SSR1 (Sclerotium rolfsii), A0A0M3KL30 (protein)
# chain: TYKITVRVYQTNPDAFFHPVEKTVWKYANGGTWTITDDQHVLTMGGSGTSGTLRFHADNGESFTATFGVHNYKRWCDIVTNLAADETGMVINQQYYSQKNREEARERQLSNYQVKNAKGRNFQIVYTEAEGNDLHANLIIG
# How the values were obtained:
# Assay in all cases: glycan array binding signal (z-score within array); higher = stronger binding
# Conditions in all cases: glycan notation: IUPAC condensed, linker removed
# [1] = molecular target: Neu5Ac(a2-3)Gal6S(b1-4)[Fuc(a1-3)]GlcNAc
# Method in brief: (§1)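 Negative Z-scores can be read as non-binding. The Z-score is calculated within each array and then averaged across arrays of one protein sequence at different concentrations or buffers and across linkers. Arrays, 3228 in all, were curated from the Consortium for Functional Glycomics database and kept only where the protein sequence was available.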
# Neu5Ac(a2-3)GalNAc = molecular target: Neu5Ac(a2-3)GalNAc
# Method in brief: as §1
# [2] = molecular target: Neu5Ac(a2-3)GalNAc(b1-4)GlcNAc
# Method in brief: as §1
# [3] = molecular target: Neu5Ac(a2-3)[GalNAc(b1-4)]Gal(b1-4)Glc
# Method in brief: as §1
# [4] = molecular target: Neu5Ac(a2-3)[GalNAc(b1-4)]Gal(b1-4)GlcNAc
# Method in brief: as §1
# [5] = molecular target: Neu5Ac(a2-3)[GalNAc(b1-4)]Gal(b1-4)GlcNAc(b1-3)GalNAc
# Method in brief: as §1
# [6] = molecular target: Neu5Ac(a2-3)[Neu5Ac(a2-6)]GalNAc
# Method in brief: as §1
# Neu5Ac(a2-6)Gal = molecular target: Neu5Ac(a2-6)Gal
# Method in brief: as §1
# [7] = molecular target: Neu5Ac(a2-6)Gal(b1-3)GlcNAc(b1-3)[Gal(b1-4)GlcNAc(b1-6)]Gal(b1-4)Glc
# Method in brief: as §1
# Neu5Ac(a2-6)Gal(b1-4)Glc = molecular target: Neu5Ac(a2-6)Gal(b1-4)Glc
# Method in brief: as §1
# [8] = molecular target: Neu5Ac(a2-6)Gal(b1-4)GlcNAc
# Method in brief: as §1
# [9] = molecular target: Neu5Ac(a2-6)Gal(b1-4)GlcNAc(b1-2)Man
# Method in brief: as §1
# [10] = molecular target: Neu5Ac(a2-6)Gal(b1-4)GlcNAc(b1-2)Man(a1-3)Man(b1-4)GlcNAc(b1-4)GlcNAc
# Method in brief: as §1
# [11] = molecular target: Neu5Ac(a2-6)Gal(b1-4)GlcNAc(b1-2)Man(a1-3)[Gal(b1-4)GlcNAc(b1-2)Man(a1-6)]Man(b1-4)GlcNAc(b1-4)GlcNAc
# Method in brief: as §1
# [12] = molecular target: Neu5Ac(a2-6)Gal(b1-4)GlcNAc(b1-2)Man(a1-3)[GlcNAc(b1-2)Man(a1-6)]Man(b1-4)GlcNAc(b1-4)GlcNAc
# Method in brief: as §1
# [13] = molecular target: Neu5Ac(a2-6)Gal(b1-4)GlcNAc(b1-2)Man(a1-3)[GlcNAc(b1-4)][Neu5Ac(a2-6)Gal(b1-4)GlcNAc(b1-2)Man(a1-6)]Man(b1-4)GlcNAc(b1-4)GlcNAc
# Method in brief: as §1
# [14] = molecular target: Neu5Ac(a2-6)Gal(b1-4)GlcNAc(b1-2)Man(a1-3)[Man(a1-6)]Man(b1-4)GlcNAc(b1-4)GlcNAc
# Method in brief: as §1
# [15] = molecular target: Neu5Ac(a2-6)Gal(b1-4)GlcNAc(b1-2)Man(a1-3)[Neu5Ac(a2-3)Gal(b1-4)GlcNAc(b1-2)Man(a1-6)]Man(b1-4)GlcNAc(b1-4)GlcNAc
# Method in brief: as §1
# [16] = molecular target: Neu5Ac(a2-6)Gal(b1-4)GlcNAc(b1-2)Man(a1-3)[Neu5Ac(a2-6)Gal(b1-4)GlcNAc(b1-2)Man(a1-6)]Man(b1-4)GlcNAc(b1-4)GlcNAc
# Method in brief: as §1
# [17] = molecular target: Neu5Ac(a2-6)Gal(b1-4)GlcNAc(b1-2)Man(a1-3)[Neu5Ac(a2-6)Gal(b1-4)GlcNAc(b1-2)Man(a1-6)]Man(b1-4)GlcNAc(b1-4)[Fuc(a1-6)]GlcNAc
# Method in brief: as §1
# [18] = molecular target: Neu5Ac(a2-6)Gal(b1-4)GlcNAc(b1-2)Man(a1-6)Man(b1-4)GlcNAc(b1-4)GlcNAc
# Method in brief: as §1
# [19] = molecular target: Neu5Ac(a2-6)Gal(b1-4)GlcNAc(b1-2)Man(a1-6)[Gal(b1-4)GlcNAc(b1-2)Man(a1-3)]Man(b1-4)GlcNAc(b1-4)GlcNAc
# Method in brief: as §1
# [20] = molecular target: Neu5Ac(a2-6)Gal(b1-4)GlcNAc(b1-2)Man(a1-6)[GlcNAc(b1-2)Man(a1-3)]Man(b1-4)GlcNAc(b1-4)GlcNAc
# Method in brief: as §1
# [21] = molecular target: Neu5Ac(a2-6)Gal(b1-4)GlcNAc(b1-2)Man(a1-6)[Man(a1-3)]Man(b1-4)GlcNAc(b1-4)GlcNAc
# Method in brief: as §1
# [22] = molecular target: Neu5Ac(a2-6)Gal(b1-4)GlcNAc(b1-2)[Neu5Ac(a2-6)Gal(b1-4)GlcNAc(b1-4)]Man(a1-3)[GlcNAc(b1-4)][Neu5Ac(a2-6)Gal(b1-4)GlcNAc(b1-2)[Neu5Ac(a2-6)Gal(b1-4)GlcNAc(b1-6)]Man(a1-6)]Man(b1-4)GlcNAc(b1-4)GlcNAc
# Method in brief: as §1
# [23] = molecular target: Neu5Ac(a2-6)Gal(b1-4)GlcNAc(b1-2)[Neu5Ac(a2-6)Gal(b1-4)GlcNAc(b1-4)]Man(a1-3)[GlcNAc(b1-4)][Neu5Ac(a2-6)Gal(b1-4)GlcNAc(b1-4)Man(a1-6)]Man(b1-4)GlcNAc(b1-4)GlcNAc
# Method in brief: as §1
# [24] = molecular target: Neu5Ac(a2-6)Gal(b1-4)GlcNAc(b1-2)[Neu5Ac(a2-6)Gal(b1-4)GlcNAc(b1-6)]Man(a1-6)[Neu5Ac(a2-6)Gal(b1-4)GlcNAc(b1-2)Man(a1-3)][GlcNAc(b1-4)]Man(b1-4)GlcNAc(b1-4)GlcNAc
# Method in brief: as §1
# [25] = molecular target: Neu5Ac(a2-6)Gal(b1-4)GlcNAc(b1-3)Gal(b1-3)GlcNAc
# Method in brief: as §1
# [26] = molecular target: Neu5Ac(a2-6)Gal(b1-4)GlcNAc(b1-3)Gal(b1-4)GlcNAc
# Method in brief: as §1
# [27] = molecular target: Neu5Ac(a2-6)Gal(b1-4)GlcNAc(b1-3)Gal(b1-4)GlcNAc(b1-2)Man(a1-3)[Neu5Ac(a2-6)Gal(b1-4)GlcNAc(b1-3)Gal(b1-4)GlcNAc(b1-2)Man(a1-6)]GalNAc
# Method in brief: as §1
# [28] = molecular target: Neu5Ac(a2-6)Gal(b1-4)GlcNAc(b1-3)Gal(b1-4)GlcNAc(b1-3)Gal(b1-4)GlcNAc
# Method in brief: as §1
# [29] = molecular target: Neu5Ac(a2-6)Gal(b1-4)GlcNAc(b1-3)Gal(b1-4)GlcNAc(b1-3)Gal(b1-4)GlcNAc(b1-2)Man(a1-3)[Neu5Ac(a2-6)Gal(b1-4)GlcNAc(b1-3)Gal(b1-4)GlcNAc(b1-3)Gal(b1-4)GlcNAc(b1-2)Man(a1-6)]GalNAc
# Method in brief: as §1
# [30] = molecular target: Neu5Ac(a2-6)Gal(b1-4)GlcNAc(b1-3)Gal(b1-4)GlcNAc(b1-3)GalNAc
# Method in brief: as §1
# [31] = molecular target: Neu5Ac(a2-6)Gal(b1-4)GlcNAc(b1-3)Gal(b1-4)GlcNAc(b1-3)[Neu5Ac(a2-6)Gal(b1-4)GlcNAc(b1-3)Gal(b1-4)GlcNAc(b1-6)]GalNAc
# Method in brief: as §1
# [32] = molecular target: Neu5Ac(a2-6)Gal(b1-4)GlcNAc(b1-3)Gal(b1-4)GlcNAc(b1-6)[Gal(b1-3)]GalNAc
# Method in brief: as §1
# [33] = molecular target: Neu5Ac(a2-6)Gal(b1-4)GlcNAc(b1-3)Gal(b1-4)[Fuc(a1-3)]GlcNAc(b1-3)Gal(b1-4)[Fuc(a1-3)]GlcNAc
# Method in brief: as §1
# [34] = molecular target: Neu5Ac(a2-6)Gal(b1-4)GlcNAc(b1-3)GalNAc
# Method in brief: as §1
# [35] = molecular target: Neu5Ac(a2-6)Gal(b1-4)GlcNAc(b1-3)[Neu5Ac(a2-6)Gal(b1-4)GlcNAc(b1-6)]GalNAc
# Method in brief: as §1
# [36] = molecular target: Neu5Ac(a2-6)Gal(b1-4)GlcNAc(b1-6)GalNAc
# Method in brief: as §1
binder,measurement,setting,value
B1,glycan array binding signal (z-score),[1],-0.349
same,glycan array binding signal (z-score),Neu5Ac(a2-3)GalNAc,1.68
same,glycan array binding signal (z-score),[2],-0.344
same,glycan array binding signal (z-score),[3],-0.354
same,glycan array binding signal (z-score),[4],-0.387
same,glycan array binding signal (z-score),[5],-0.271
same,glycan array binding signal (z-score),[6],-0.32
same,glycan array binding signal (z-score),Neu5Ac(a2-6)Gal,-0.339
same,glycan array binding signal (z-score),[7],-0.336
same,glycan array binding signal (z-score),Neu5Ac(a2-6)Gal(b1-4)Glc,-0.338
same,glycan array binding signal (z-score),[8],-0.339
same,glycan array binding signal (z-score),[9],-0.339
same,glycan array binding signal (z-score),[10],-0.341
same,glycan array binding signal (z-score),[11],-0.331
same,glycan array binding signal (z-score),[12],1.11
same,glycan array binding signal (z-score),[13],-0.331
same,glycan array binding signal (z-score),[14],-0.341
same,glycan array binding signal (z-score),[15],-0.339
same,glycan array binding signal (z-score),[16],-0.379
same,glycan array binding signal (z-score),[17],-0.331
same,glycan array binding signal (z-score),[18],-0.343
same,glycan array binding signal (z-score),[19],-0.346
same,glycan array binding signal (z-score),[20],2.13
same,glycan array binding signal (z-score),[21],-0.33
same,glycan array binding signal (z-score),[22],-0.327
same,glycan array binding signal (z-score),[23],-0.326
same,glycan array binding signal (z-score),[24],-0.323
same,glycan array binding signal (z-score),[25],-0.318
same,glycan array binding signal (z-score),[26],-0.349
same,glycan array binding signal (z-score),[27],-0.334
same,glycan array binding signal (z-score),[28],-0.321
same,glycan array binding signal (z-score),[29],-0.246
same,glycan array binding signal (z-score),[30],0.414
same,glycan array binding signal (z-score),[31],-0.281
same,glycan array binding signal (z-score),[32],0.789
same,glycan array binding signal (z-score),[33],-0.339
same,glycan array binding signal (z-score),[34],-0.07
same,glycan array binding signal (z-score),[35],-0.297
same,glycan array binding signal (z-score),[36],-0.327

# From the supplement of paper PMC8728848
